Test results as given in the supplement of paper PMC4967469.

Compound: CCOc1cc2ncc(C#N)c(Nc3ccc(F)c(Cl)c3)c2cc1NC(=O)/C=C/CN(C)C [EKB-569]
Experiment: Viability of human cancer cell lines after 72 h of drug (GDSC screen)
Conditions: top dose inferred
Experimental: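 Human cancer cell lines in 384-well plates, medium with 10% serum, drug for 72 h over a 256-fold dose range (nine 2-fold or five 4-fold steps up to the top dose). Adherent lines were fixed and stained with the nucleic acid dye Syto60, suspension lines read with resazurin; signal relative to control wells, capped at 0 and 100%. One two-parameter sigmoid per drug and line, fitted in a mixed model over all curves with the slope shared within a line.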

| Cell Line | AUC | IC50 |
| --- | --- | --- |
| CAL-29 (bladder, adherent, top dose 2.5 µM) | 0.821 | 1590 nM |
| CAL-33 (head and neck, adherent, top dose 2.5 µM) | 0.709 | 606 nM |
| CAL-39 (cervix, adherent, top dose 2.5 µM) | 0.949 | > 2500 nM |
| CAL-51 (breast, adherent, top dose 2.5 µM) | 0.974 | > 2500 nM |
| CAL-54 (kidney, adherent, top dose 2.5 µM) | 0.928 | > 2500 nM |
| CAL-62 (thyroid, adherent, top dose 2.5 µM) | 0.975 | > 2500 nM |
| CAL-72 (osteosarcoma, adherent, top dose 2.5 µM) | 0.984 | > 2500 nM |
| CAL-78 (chondrosarcoma, adherent, top dose 2.5 µM) | 0.986 | > 2500 nM |
| CAL-85-1 (breast, adherent, top dose 2.5 µM) | 0.518 | 178 nM |
| CAL-120 (breast, adherent, top dose 2.5 µM) | 0.791 | 1500 nM |
| CAL-148 (breast, suspension, top dose 2.5 µM) | 0.979 | > 2500 nM |
| CAMA-1 (breast, adherent, top dose 2.5 µM) | 0.958 | > 2500 nM |
| CAPAN-1 (pancreas, adherent, top dose 2.5 µM) | 0.816 | 1580 nM |
| CAS-1 (glioma, adherent, top dose 2.5 µM) | 0.805 | 1850 nM |
| CCF-STTG1 (glioma, adherent, top dose 2.5 µM) | 0.967 | > 2500 nM |
| CCK-81 (large intestine, adherent, top dose 20 µM) | 0.103 | < 78.1 nM |
| CCRF-CEM (lymphoblastic leukaemia, suspension, top dose 2.5 µM) | 0.659 | 398 nM |
| CESS (acute myeloid leukaemia, suspension, top dose 2.5 µM) | 0.655 | 391 nM |
| CFPAC-1 (pancreas, adherent, top dose 2.5 µM) | 0.95 | > 2500 nM |
| CGTH-W-1 (thyroid, adherent, top dose 2.5 µM) | 0.951 | > 2500 nM |

| Cell Line | AUC | IC50 |
| --- | --- | --- |
| CHL-1 (melanoma, adherent, top dose 2.5 µM) | 0.557 | 222 nM |
| CHP-126 (neuroblastoma, suspension, top dose 2.5 µM) | 0.965 | > 2500 nM |
| CHP-134 (neuroblastoma, suspension, top dose 2.5 µM) | 0.962 | > 2500 nM |
| CHP-212 (neuroblastoma, adherent, top dose 2.5 µM) | 0.826 | 1360 nM |
| CHSA0011 (chondrosarcoma, adherent, top dose 2.5 µM) | 0.94 | > 2500 nM |
| CHSA0108 (chondrosarcoma, adherent, top dose 2.5 µM) | 0.983 | > 2500 nM |
| CHSA8926 (chondrosarcoma, adherent, top dose 2.5 µM) | 0.966 | > 2500 nM |
| CL-11 (large intestine, adherent, top dose 2.5 µM) | 0.987 | > 2500 nM |
| CMK (acute myeloid leukaemia, suspension, top dose 2.5 µM) | 0.261 | 37.1 nM |
| COLO-205 (large intestine, suspension, top dose 2.5 µM) | 0.965 | > 2500 nM |
| COLO-320-HSR (large intestine, suspension, top dose 2.5 µM) | 0.982 | > 2500 nM |
| COLO-668 (small cell lung carcinoma, adherent, top dose 2.5 µM) | 0.981 | > 2500 nM |
| COLO-678 (large intestine, semi-adherent, top dose 2.5 µM) | 0.958 | > 2500 nM |
| COLO-679 (melanoma, adherent, top dose 2.5 µM) | 0.942 | > 2500 nM |
| COLO-680N (oesophagus, adherent, top dose 2.5 µM) | 0.933 | > 2500 nM |
| COLO-684 (endometrium, suspension, top dose 2.5 µM) | 0.911 | > 2500 nM |
| COLO-783 (melanoma, adherent, top dose 2.5 µM) | 0.986 | > 2500 nM |
| COLO-792 (melanoma, adherent, top dose 2.5 µM) | 0.883 | > 2500 nM |
| COLO-800 (melanoma, adherent, top dose 2.5 µM) | 0.959 | > 2500 nM |
| COLO-824 (breast, adherent, top dose 2.5 µM) | 0.913 | > 2500 nM |

| Cell Line | AUC | IC50 |
| --- | --- | --- |
| COLO-829 (melanoma, adherent, top dose 2.5 µM) | 0.96 | > 2500 nM |
| COR-L23 (large cell lung carcinoma, adherent, top dose 2.5 µM) | 0.802 | 1190 nM |
| COR-L88 (small cell lung carcinoma, adherent, top dose 2.5 µM) | 0.976 | > 2500 nM |
| COR-L95 (small cell lung carcinoma, adherent, top dose 2.5 µM) | 0.963 | > 2500 nM |
| COR-L105 (lung adenocarcinoma, adherent, top dose 2.5 µM) | 0.186 | 13.9 nM |
| COR-L279 (small cell lung carcinoma, suspension, top dose 2.5 µM) | 0.989 | > 2500 nM |
| COR-L303 (small cell lung carcinoma, suspension, top dose 2.5 µM) | 0.945 | > 2500 nM |
| COR-L311 (small cell lung carcinoma, suspension, top dose 2.5 µM) | 0.933 | > 2500 nM |
| COR-L321 (lung, suspension, top dose 2.5 µM) | 0.961 | > 2500 nM |
| CP50-MEL-B (melanoma, adherent, top dose 2.5 µM) | 0.982 | > 2500 nM |
| CP66-MEL (melanoma, adherent, top dose 2.5 µM) | 0.971 | > 2500 nM |
| CPC-N (small cell lung carcinoma, suspension, top dose 2.5 µM) | 0.906 | > 2500 nM |
| CS1 (bone, adherent, top dose 2.5 µM) | 0.773 | 1090 nM |
| CTB-1 (B-cell lymphoma, suspension, top dose 2.5 µM) | 0.605 | 337 nM |
| CTV-1 (acute myeloid leukaemia, suspension, top dose 20 µM) | 0.116 | 109 nM |
| CW-2 (large intestine, adherent, top dose 20 µM) | 0.706 | 4990 nM |
| Ca9-22 (head and neck, adherent, top dose 2.5 µM) | 0.834 | 1470 nM |
| Ca-Ski (cervix, adherent, top dose 2.5 µM) | 0.719 | 709 nM |
| CaR-1 (large intestine, adherent, top dose 2.5 µM) | 0.944 | > 2500 nM |

IC50 is the fitted dose that halves viability relative to control wells, and lower means more sensitive; where the fit passes the top or lowest dose, that dose stands as a limit. AUC, from the same fit, is the share of area under the viability curve across the 256-fold dose range; values near 1 show little effect. A top dose marked as inferred comes from the curve model; the source does not state it.
